Target: T1, human insulin receptor on human IM-9 cells (human)
T1 construct: whole, on cells; Endogenous receptor on IM-9 cells; assay run at 4 C; also called IR
Experiment: IM-9 cells, competition with biotinylated RHI, flow cytometry, 4 C (Table 5, same data as Table 9)
Procedure: Cultures of IM-9 cells were centrifuged at 250×g (˜1000 rpm) for 10 min to pellet the cells. Cells were washed once with HBSS or PBS buffer, resuspended in cold FACS staining medium (HBSS/2 mM EDTA/0.1% Na-azide+4% horse serum) to a concentration of 8×10^6 cells/mL and kept on ice or 4° C. until test solutions were made. The insulin-Fc protein was diluted in FACS buffer in 1:3 serial dilutions as 2× concentrations in 1.2 mL tubes (approx. 60 μL volume of each dilution), and the solutions were kept cold on ice until ready for pipetting.
Biotinylated-RHI was diluted in FACS staining medium to a concentration of 1.25 μg/mL. 40 μL of the serially diluted test compound and 8 μL of 1.25 μg/mL Biotin-RHI were added into each well of a V bottom microtiter plate, mixed by slow vortexing, and placed on ice. […]
The V-bottom plates containing cells were then analyzed on a Guava 8-HT flow cytometer (Millipore). Biotinylated-RHI binding to insulin receptor was quantitated by the median fluorescence intensity (MFI) of the cells on the FACS FL-2 channel for each concentration of the test compound. […] The % inhibition by test compounds of biotinylated-RHI binding on IM-9 cells was plotted against log concentrations of the test compound, and the resulting IC50 values were calculated using GraphPad Prism (GraphPad Software, La Jolla, Calif.) for the test compounds.

- IC50: > 5 µM
B1: insulin-Fc fusion protein of SEQ ID NO: 49 (insulin polypeptide SEQ ID NO: 24 with native B10H and A8T, linker SEQ ID NO: 25, canine IgGB Fc fragment with … (Fc fusion)
chain: FVNQHLCGSHLVEALALVCGERGFFYTDPTGGGPRR[about 20 residues not spelt out]GGGGAGGGGDCPKCPAPEMLGGPSVFIFPPKPKDTLLIARTPEVTCVVVDLDPEDPEVQISWFVDGKQMQTAKTQPREEQFQGTYRVVSVLPIGHQDWLKGKQFTCKVNNKALPSPIERTISKARGQAHQPSVYVLPPSREELSKNTVSLTCLIKDFFPPDIDVEWQSNGQQEPESKYRTTPPQLDEDGSYFLYSKLSVDKSRWQRGDTFICAVMHEALHNHYTQESLSHSPG
notes: Non-glycosylated homodimer made in HEK293 cells; also called cNg-NB139-Q
